Test results reported in PubChem BioAssay AID488969 (Vanderbilt High Throughput Screening Facility, 2010).
In all, about 110,000 compounds were measured (“z-score”: median about -0.1, highest 2% from about 2 on). The list shows a part of the results. The source made the active and inactive calls.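 The calls were made as follows: active = z-score in the third read window above 3 or below -3; inactive = the rest.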

Each molecule was assayed against Metabotropic glutamate receptor 8 (Rattus norvegicus) (UniProt P70579) (assay: rat mGluR8 modulators via GIRK flux, primary screen, cell-based, thallium flux, HTS (AID 488969)). Details: HEK293 rat mGluR8, GIRK (G protein-gated inwardly rectifying potassium channel) thallium flux, FluoZin2; at 10 µM; stronger effect = higher value; submaximal glutamate (EC20) added with thallium.
Sequence of UniProt P70579 (P70579 whole entry, looked up): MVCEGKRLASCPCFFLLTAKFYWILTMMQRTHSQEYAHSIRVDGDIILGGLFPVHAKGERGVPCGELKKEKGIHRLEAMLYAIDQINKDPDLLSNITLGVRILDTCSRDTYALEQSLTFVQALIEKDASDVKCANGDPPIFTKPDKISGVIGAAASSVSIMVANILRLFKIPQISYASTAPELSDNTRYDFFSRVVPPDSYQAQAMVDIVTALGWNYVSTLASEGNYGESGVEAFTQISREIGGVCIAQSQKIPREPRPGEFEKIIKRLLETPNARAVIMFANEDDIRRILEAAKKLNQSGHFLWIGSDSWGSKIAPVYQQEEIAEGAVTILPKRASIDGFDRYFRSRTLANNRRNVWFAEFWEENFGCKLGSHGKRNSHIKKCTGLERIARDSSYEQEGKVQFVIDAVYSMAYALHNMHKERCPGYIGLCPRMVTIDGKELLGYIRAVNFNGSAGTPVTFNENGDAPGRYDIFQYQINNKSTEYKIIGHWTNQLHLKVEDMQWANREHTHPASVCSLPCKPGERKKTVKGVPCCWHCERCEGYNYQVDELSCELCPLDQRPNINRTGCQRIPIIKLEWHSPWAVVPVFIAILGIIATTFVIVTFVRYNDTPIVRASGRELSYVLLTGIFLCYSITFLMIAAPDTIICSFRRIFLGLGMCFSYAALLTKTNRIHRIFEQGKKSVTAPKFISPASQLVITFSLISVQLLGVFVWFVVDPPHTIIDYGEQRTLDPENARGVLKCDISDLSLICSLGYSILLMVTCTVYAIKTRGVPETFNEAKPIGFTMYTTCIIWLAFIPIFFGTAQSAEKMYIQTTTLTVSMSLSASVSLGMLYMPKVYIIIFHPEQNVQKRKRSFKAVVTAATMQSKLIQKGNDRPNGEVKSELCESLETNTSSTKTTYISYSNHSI

| SMILES | z-score |
| --- | --- |
| O=C(/C=C/c1ccccc1)c1ccccn1 | -0.107 |
| COCCn1nnnc1C(c1cccs1)N1CCN(c2cccc(C(F)(F)F)c2)CC1 (configuration not stated) | 0.0215 |
| O=C(Nc1ncccc1Cl)C(Sc1ccccc1)c1ccccc1 (configuration not stated) | -0.096 |
| Cc1sc2ncnc(NCc3ccccc3)c2c1C | -0.366 |
| Cc1cc(Cl)ccc1OCC(=O)NCCOc1nc(N2CCCCC2)nc(N2CCOCC2)n1 | -0.876 |
| Cc1ccc(C2C(C(=O)c3sc(C)nc3C)=C(O)C(=O)N2CCN(C)C)o1 (configuration not stated) | 0.405 |
| O=C(NCSC1=NCCS1)c1ccccc1 | 0.175 |
| COc1cc(/C=N/Nc2nn3cnnc3c3ccccc23)ccc1O | -0.551 |
| CCOC(=O)C1CCN(C(=O)COc2ccc(Cl)cc2Cl)CC1 | -0.471 |
| CC(=O)Oc1ccc(OC(C)=O)c(SCCCCCN2CCOCC2)c1 | -0.0266 |
| CCCS(=O)(=O)N1CCCC(C(=O)NCCc2ccc(OC)c(OC)c2)C1 (configuration not stated) | -0.113 |
| Cc1ccc(C(=O)Nc2ccc(Cl)cn2)cc1S(=O)(=O)N1CCOCC1 | -0.00908 |
| Cc1ccc(S(=O)(=O)NC(c2ccccc2)C(C)C(=O)n2nc(C)cc2C)cc1 (configuration not stated) | -0.193 |
| CCn1nc(NC(=O)c2ccco2)c2cc3ccc(C)cc3nc21 | -0.15 |
| C=CCNC(=O)c1ccc(N(CC=C)S(C)(=O)=O)cc1 | -0.0506 |
| Cc1ccc(-n2ncc3c(N4CCCC4)ncnc32)c(C)c1 | 0.147 |
| CCCCNC(=O)COC(=O)c1cc(S(=O)(=O)N2CCCCCC2)ccc1OC | 0.28 |
| CON1C(=O)C(=O)N(OC)C2CCCCC21 (configuration not stated) | -0.198 |
| COc1ccc([N+](=O)[O-])cc1NC(=O)CC(C)c1ccccc1 (configuration not stated) | -0.513 |
| COc1ccc(-n2c(SCC(=O)NCc3ccco3)nnc2-c2c[nH]c3ccccc23)cc1 | -0.512 |
| CCN=C1SC(CC(=O)NC2CCCCC2)C(=O)N1CC (configuration not stated) | 0.215 |
| COc1ccc(N(C(=O)c2ccccc2C)S(=O)(=O)c2cccs2)cc1 | -1.15 |
| O=S(=O)(N1CCCCC1)N1CCN(CC(O)COc2ccc3cc(Br)ccc3c2)CC1 (configuration not stated) | -0.125 |
| COc1ccccc1NC(C)C(=O)Nc1ccc(C(C)=O)cc1 (configuration not stated) | -0.0352 |

| SMILES | z-score |
| --- | --- |
| O=C(Nc1ccc(Cl)cc1)C1CCCN(S(=O)(=O)c2cnc[nH]2)C1 (configuration not stated) | 0.605 |
| COc1ccc(C(=O)C2CCN(C(=O)c3ccc(C)cc3)CC2)cc1 | -0.285 |
| Cc1cccc(C(C)C)c1NC(=O)CSc1nncn1C | -0.617 |
| Cc1ccccc1Cn1ccc(-c2ccc(Cl)cc2)c(C#N)c1=O | -0.0203 |
| O=C1C2C3C=CC(C3)C2C(=O)N1CNc1ccccc1 (configuration not stated) | 0.175 |
| CC(c1ccccc1)N1C(=O)c2ccc(C(=O)NCc3ccco3)cc2C1=O (configuration not stated) | -0.54 |
| Cc1nc(C)c(CC(=O)N/N=C/c2ccc(O)cc2)c(=O)[nH]1 | -0.137 |
| Cc1ccc(C(=O)N/C(=C\c2ccc(Br)cc2)c2nc(=S)[nH][nH]2)cc1 | -0.0138 |
| O=C(CCC1CCCCC1)NC1=NCCS1 | -0.119 |
| COc1ccc(-c2nnc(SCC(=O)NC(=O)NCc3ccco3)o2)cc1 | 0.00322 |
| COc1ccc(OC)c(S(=O)(=O)N2CCC(C(=O)NCc3ccccc3OC)CC2)c1 | -0.549 |
| Clc1ccc(OCc2nnnn2-c2ccccc2)cc1 | -0.208 |
| Cc1cc(S(=O)(=O)N2CCN(c3ccccc3O)CC2)c(C)s1 | -0.601 |
| O=C(CSc1nnc(-c2cccs2)o1)N1CCOCC1 | 0.0399 |
| CSc1ccccc1NC(=O)c1ccccc1N(Cc1ccccc1)S(C)(=O)=O | -0.0768 |
| CC(=C/c1ccccc1)/C=N/NC(=O)CSc1nc(C)cc(C)n1 | -0.195 |
| CCSC1=N/C(=C\c2cccc(F)c2)C(=O)S1 | 0.803 |
| N#CCc1nc2c3c4c(sc3ncn2n1)CCCC4 | 0.301 |
| CC(=O)c1ccc(OCC(O)CN2C(C)CCCC2C)cc1 (configuration not stated) | -0.288 |
| COc1ccc(-n2cnnc2SC(C)C(=O)Nc2cccc([N+](=O)[O-])c2)cc1 (configuration not stated) | -0.431 |
| COC(=O)c1cccc(NC(=O)c2cccc(OC)c2)c1 | -0.141 |
| O=C1c2ccccc2C(=O)N1CCc1nc2ccccc2c(=O)n1CCCn1ccnc1 | 0.0357 |
| COc1cccc2c(=O)n(CC(=O)Nc3ccccc3F)ccc12 | 0.461 |
| CCOC(=O)C1CCN(C(=O)C(C)Sc2ccc(Cl)cc2)CC1 (configuration not stated) | -0.123 |

| SMILES | z-score |
| --- | --- |
| CC(C)C(NC(=O)c1ccc(C(C)(C)C)cc1)C(=O)NC1=NCCS1 (configuration not stated) | -1.01 |
| O=C(NCC1CCCO1)c1c(O)c2cccc3c2n(c1=O)CC3 (configuration not stated) | 0.105 |
| C/C(CC(=O)Nc1ccccc1C)=N\NC(=O)Cc1csc(N)n1 | -0.16 |
| COc1cccc(/C=N/NC(=O)c2cnccn2)c1 | 0.441 |
| CC(C)(C)c1cc(C(=O)O)nn1-c1ccccc1 | -0.0651 |
| S=c1[nH]nc(-c2ccc(Br)o2)n1Cc1ccccc1 | active: 3.42 |
| CN1C(=O)c2oc3ccccc3c(=O)c2C1c1ccccn1 (configuration not stated) | active: 8.59 |
| CCN(CC)CCCn1c(=S)[nH]c2cc(OC)c(OC)cc2c1=O | -0.0622 |
| COC(=O)c1c(NC(=O)/C=C/c2ccco2)sc2c1CCC2 | 0.997 |
| Cc1nnc(SCC(=O)Nc2ccc3c(c2)OCCO3)n1CC1CCCO1 (configuration not stated) | -0.241 |
| Cc1ccc(-c2nnc3ccc(SCC(=O)N4CCCc5ccccc54)nn23)cc1 | -1.25 |
| CC1CN(c2ncnc3c2oc2ccccc23)CC(C)O1 (configuration not stated) | -0.819 |
| CCOC(=O)c1cc2c(=O)n3ccccc3nc2n(CCCOC)c1=NC(=O)C(C)(C)C | 0.0485 |
| Cc1ccc2c(c1)N(CCC(=O)NC(C)C)C(=O)CO2 | 0.439 |
| O=C(O)c1oc2ccccc2c1CSc1ccccn1 | active: -3.14 |
| COc1ccc(CC(=O)Nc2ccc(S(=O)(=O)Nc3cc(C)on3)cc2)cc1OC | -0.00554 |
| CCOc1cccc(OCCOCCOc2ccccc2C(C)=O)c1 | 0.0696 |
| Cc1cc(C)nc(SCC(=O)c2ccc([N+](=O)[O-])cc2)n1 | 0.0207 |
| COc1ccc(CCNC(=O)c2cnn3ccccc23)c(OC)c1OC | 0.0444 |
| COc1ccc(C(=O)Nc2ccc(CN3CCOCC3)cc2)cc1 | -0.31 |
| COc1ccc(-c2cnc(OC(C)(C)C)nc2OC(C)(C)C)cc1OC | -0.0419 |
| COc1ccc(OC)c(NC(=O)c2nnn(CCc3ccccc3)c2N)c1 | -0.357 |
| Cn1cc(C(=O)N2CCN(c3ccccn3)CC2)c(=O)c2cc(S(=O)(=O)N3CCOCC3)ccc21 | -0.132 |
| Cc1cccc(C)c1NC(=O)c1ccc([N+](=O)[O-])s1 | -0.118 |
